For 32 sequences, binding signal results are on record in article PMC12820563, “FoxP3 forms a head-to-head dimer in vivo and stabilizes its multimerization on adjacent microsatellites”.

This is one part of the list.

The assay addresses T1, MBP-FoxP1dN (Mus musculus, UniProt P58462 326-579).
T1 sequence: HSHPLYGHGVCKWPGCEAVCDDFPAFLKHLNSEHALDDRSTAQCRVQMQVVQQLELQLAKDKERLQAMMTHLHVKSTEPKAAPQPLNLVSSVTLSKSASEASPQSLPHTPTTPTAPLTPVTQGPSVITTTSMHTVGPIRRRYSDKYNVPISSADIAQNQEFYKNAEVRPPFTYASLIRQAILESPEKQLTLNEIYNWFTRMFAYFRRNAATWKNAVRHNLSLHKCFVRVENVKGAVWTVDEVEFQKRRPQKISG
Nature of the assay: PD-seq (MBP pull-down with sequencing); 20 mM Tris-HCl pH 7.5, 100 mM NaCl, 1.5 mM MgCl2, 0.4 uM protein, 0.1 uM dsDNA library, 30 min, room temperature, amylose pull-down; high values mean tight binding. The settings on record: protein: recombinant; tags: His6-MBP; chain copies: 2; dsDNA, one strand shown. The procedure, abridged: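 Amylose resin was used to capture complexes formed during 30 min at room temperature in Tris pH 7.5 buffer with NaCl and MgCl2 between 0.4 µM His6-MBP-tagged mouse FoxP3 or FoxP1 fragment lacking the N-terminus, expressed in E. coli, and 0.1 µM Klenow-filled double-stranded degenerate DNA library. After three washes, the DNA was released with proteinase K, barcoded by PCR and sequenced on Illumina. Binding is pooled-replicate reads-per-million enrichment, pull-down over input.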
On to “GATGATTGTTCTCCCAGCTGATGAATTCTAAATTTCGAGTAAACAAATTTTCCTAATCTTTCTGTTCAAGCGCCATCTAC”, for which the binding signal is 0.877 RPM ratio (pull-down/input).

In the case of “GATGATTGTTCTCCCAGCTGATGAATTAGCGAACTCGAGTAAACAAATTTTCCTAATCTTTCTGTTCAAGCGCCATCTAC”, the binding signal is 0.828 RPM ratio (pull-down/input).

Regarding “GATGATTGTTCTCCCAGCTGATGAATTAGATTGTTCGAGTAAACAAATTTTCCTAATCTTTCTGTTCAAGCGCCATCTAC”, the binding signal is 1.02 RPM ratio (pull-down/input).

Turning to “GATGATTGTTCTCCCAGCTGATGAATTGAACCGTTCGAGTAAACAAATTTTCCTAATCTTTCTGTTCAAGCGCCATCTAC”, the binding signal is 0.853 RPM ratio (pull-down/input).

Consider “GATGATTGTTCTCCCAGCTGATGAATTGAGGCTGTCGAGTAAACAAATTTTCCTAATCTTTCTGTTCAAGCGCCATCTAC”, for which the binding signal was 0.891 RPM ratio (pull-down/input).

With “GATGATTGTTCTCCCAGCTGATGAATTTGACTATTCGAGTAAACAAATTTTCCTAATCTTTCTGTTCAAGCGCCATCTAC”, the binding signal is 0.903 RPM ratio (pull-down/input).

Consider “GATGATTGTTCTCCCAGCTGATGAATTCTTGCGGTCGAGTAAACAAATTTTCCTAATCTTTCTGTTCAAGCGCCATCTAC”, for which the binding signal was 0.786 RPM ratio (pull-down/input).

“GATGATTGTTCTCCCAGCTGATGAATTGCAAGTTTCGAGTAAACAAATTTTCCTAATCTTTCTGTTCAAGCGCCATCTAC”: the binding signal is 1.22 RPM ratio (pull-down/input).

As for “GATGATTGTTCTCCCAGCTGATGAATTAGGCAGGTCGAGTAAACAAATTTTCCTAATCTTTCTGTTCAAGCGCCATCTAC”, the binding signal is 0.851 RPM ratio (pull-down/input).

On to “GATGATTGTTCTCCCAGCTGATGAATTATCGACGTCGAGTAAACAAATTTTCCTAATCTTTCTGTTCAAGCGCCATCTAC”, for which the binding signal was 0.937 RPM ratio (pull-down/input).

Take “GATGATTGTTCTCCCAGCTGATGAATTATCTTAATCGAGTAAACAAATTTTCCTAATCTTTCTGTTCAAGCGCCATCTAC”: the binding signal is 1.13 RPM ratio (pull-down/input).

In the case of “GATGATTGTTCTCCCAGCTGATGAATTGACCCACTCGAGTAAACAAATTTTCCTAATCTTTCTGTTCAAGCGCCATCTAC”, the binding signal was 0.9 RPM ratio (pull-down/input).

Consider “GATGATTGTTCTCCCAGCTGATGAATTTTCGTGATCGAGTAAACAAATTTTCCTAATCTTTCTGTTCAAGCGCCATCTAC”, for which the binding signal was 0.936 RPM ratio (pull-down/input).

Take “GATGATTGTTCTCCCAGCTGATGAATTGTGACGGTCGAGTAAACAAATTTTCCTAATCTTTCTGTTCAAGCGCCATCTAC”: the binding signal is 1.05 RPM ratio (pull-down/input).

For the sequence “GATGATTGTTCTCCCAGCTGATGAATTGTGTTCGTCGAGTAAACAAATTTTCCTAATCTTTCTGTTCAAGCGCCATCTAC”, the binding signal is 1.22 RPM ratio (pull-down/input).

For “GATGATTGTTCTCCCAGCTGATGAATTTGCCATATCGAGTAAACAAATTTTCCTAATCTTTCTGTTCAAGCGCCATCTAC”, the binding signal was 0.966 RPM ratio (pull-down/input).

For “GATGATTGTTCTCCCAGCTGATGAATTCATTCTGTCGAGTAAACAAATTTTCCTAATCTTTCTGTTCAAGCGCCATCTAC”, the binding signal is 0.822 RPM ratio (pull-down/input).

As for “GATGATTGTTCTCCCAGCTGATGAATTCGCGGCATCGAGTAAACAAATTTTCCTAATCTTTCTGTTCAAGCGCCATCTAC”, the binding signal is 0.924 RPM ratio (pull-down/input).

As for “GATGATTGTTCTCCCAGCTGATGAATTTAAGTGCTCGAGTAAACAAATTTTCCTAATCTTTCTGTTCAAGCGCCATCTAC”, the binding signal is 0.874 RPM ratio (pull-down/input).

For the sequence “GATGATTGTTCTCCCAGCTGATGAATTCTGATACTCGAGTAAACAAATTTTCCTAATCTTTCTGTTCAAGCGCCATCTAC”, the binding signal was 0.872 RPM ratio (pull-down/input).

With “GATGATTGTTCTCCCAGCTGATGAATTTTGGTCTTCGAGTAAACAAATTTTCCTAATCTTTCTGTTCAAGCGCCATCTAC”, the binding signal is 0.862 RPM ratio (pull-down/input).

With “GATGATTGTTCTCCCAGCTGATGAATTACGAGTTTCGAGTAAACAAATTTTCCTAATCTTTCTGTTCAAGCGCCATCTAC”, the binding signal was 1.01 RPM ratio (pull-down/input).

On to “GATGATTGTTCTCCCAGCTGATGAATTCCAGGTATCGAGTAAACAAATTTTCCTAATCTTTCTGTTCAAGCGCCATCTAC”, for which the binding signal is 0.862 RPM ratio (pull-down/input).

For the sequence “GATGATTGTTCTCCCAGCTGATGAATTTGCGGATTCGAGTAAACAAATTTTCCTAATCTTTCTGTTCAAGCGCCATCTAC”, the binding signal was 1.02 RPM ratio (pull-down/input).

Regarding “GATGATTGTTCTCCCAGCTGATGAATTCGGTGCCTCGAGTAAACAAATTTTCCTAATCTTTCTGTTCAAGCGCCATCTAC”, the binding signal was 0.898 RPM ratio (pull-down/input).

For the sequence “GATGATTGTTCTCCCAGCTGATGAATTCACTGCTTCGAGTAAACAAATTTTCCTAATCTTTCTGTTCAAGCGCCATCTAC”, the binding signal is 0.91 RPM ratio (pull-down/input).

Regarding “GATGATTGTTCTCCCAGCTGATGAATTGCATAACTCGAGTAAACAAATTTTCCTAATCTTTCTGTTCAAGCGCCATCTAC”, the binding signal was 1.17 RPM ratio (pull-down/input).

In the case of “GATGATTGTTCTCCCAGCTGATGAATTTCCTAGTTCGAGTAAACAAATTTTCCTAATCTTTCTGTTCAAGCGCCATCTAC”, the binding signal was 0.842 RPM ratio (pull-down/input).

“GATGATTGTTCTCCCAGCTGATGAATTCTTACTGTCGAGTAAACAAATTTTCCTAATCTTTCTGTTCAAGCGCCATCTAC”: the binding signal is 0.95 RPM ratio (pull-down/input).

Take “GATGATTGTTCTCCCAGCTGATGAATTATCGTATTCGAGTAAACAAATTTTCCTAATCTTTCTGTTCAAGCGCCATCTAC”: the binding signal is 1.12 RPM ratio (pull-down/input).

“GATGATTGTTCTCCCAGCTGATGAATTCAGCGCGTCGAGTAAACAAATTTTCCTAATCTTTCTGTTCAAGCGCCATCTAC”: the binding signal is 0.955 RPM ratio (pull-down/input).

“GATGATTGTTCTCCCAGCTGATGAATTCCCGACATCGAGTAAACAAATTTTCCTAATCTTTCTGTTCAAGCGCCATCTAC”: the binding signal is 0.928 RPM ratio (pull-down/input).
